Laboratory results published in publication PMC4336329 (PLoS ONE, 2015).
About 2,200 (0.71%) of roughly 310,000 compounds showed an effect of 50% or more. The effect is printed as a negative number. Some of the results follow.

Biological target: human ether-à-go-go-related gene (hERG) potassium channel (human, UniProt Q12809)
Assay: primary screen, population patch clamp on CHO cells stably expressing hERG

Sequence of human ether-à-go-go-related gene (hERG) potassium channel (Q12809 whole entry, looked up): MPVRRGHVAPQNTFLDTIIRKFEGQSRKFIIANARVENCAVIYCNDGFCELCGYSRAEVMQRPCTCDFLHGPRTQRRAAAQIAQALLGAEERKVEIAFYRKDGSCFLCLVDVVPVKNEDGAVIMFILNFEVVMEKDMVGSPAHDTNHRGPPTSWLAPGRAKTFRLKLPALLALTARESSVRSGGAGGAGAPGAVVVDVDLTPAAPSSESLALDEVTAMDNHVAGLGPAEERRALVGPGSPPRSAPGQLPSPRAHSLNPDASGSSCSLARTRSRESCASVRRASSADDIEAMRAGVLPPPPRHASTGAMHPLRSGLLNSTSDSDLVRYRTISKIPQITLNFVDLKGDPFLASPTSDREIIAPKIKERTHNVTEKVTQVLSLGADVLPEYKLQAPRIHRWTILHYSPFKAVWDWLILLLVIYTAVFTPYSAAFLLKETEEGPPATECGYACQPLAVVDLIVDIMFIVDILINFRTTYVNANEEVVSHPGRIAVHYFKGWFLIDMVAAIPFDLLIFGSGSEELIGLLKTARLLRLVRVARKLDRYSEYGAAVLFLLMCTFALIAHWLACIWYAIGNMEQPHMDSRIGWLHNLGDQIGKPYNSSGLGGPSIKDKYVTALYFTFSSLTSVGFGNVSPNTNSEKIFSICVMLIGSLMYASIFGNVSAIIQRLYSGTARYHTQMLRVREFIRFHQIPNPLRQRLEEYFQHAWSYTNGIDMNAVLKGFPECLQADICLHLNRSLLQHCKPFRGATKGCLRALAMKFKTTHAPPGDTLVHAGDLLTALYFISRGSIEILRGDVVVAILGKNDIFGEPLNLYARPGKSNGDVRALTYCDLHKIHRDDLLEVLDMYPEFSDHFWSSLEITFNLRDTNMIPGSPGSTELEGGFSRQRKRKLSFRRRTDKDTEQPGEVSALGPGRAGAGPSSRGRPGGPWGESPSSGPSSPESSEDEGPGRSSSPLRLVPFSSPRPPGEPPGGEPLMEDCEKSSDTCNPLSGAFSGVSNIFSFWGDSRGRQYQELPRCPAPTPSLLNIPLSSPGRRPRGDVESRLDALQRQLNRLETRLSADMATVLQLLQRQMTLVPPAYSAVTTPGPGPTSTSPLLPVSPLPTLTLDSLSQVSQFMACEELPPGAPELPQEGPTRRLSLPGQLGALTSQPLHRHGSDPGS

| SMILES | hERG current change (%, negative = inhibition) at 1uM |
| --- | --- |
| CCc1ccc(OCC(=O)Nc2nnc(C3CCCC3)s2)cc1 | 17.5% |
| CC(C)CCNS(=O)(=O)c1ccc(-c2ccc(S(=O)(=O)NCCC(C)C)cc2)cc1 | 12.3% |
| CCOC(=O)COc1cc(N)c(Cl)cc1Cl | 10.3% |
| Cc1cc(C(=O)CN2C(=O)NC3(CCCCC3C)C2=O)c(C)n1Cc1cccs1 (stereo not drawn) | 10.7% |
| COc1cc2c(cc1OC)CN(C(=O)c1ccc3[nH]c(C)c(C)c3c1)CC2 | 8.18% |
| CN(C)S(=O)(=O)N1CCC(Oc2ccc(C(=O)NCCc3cscn3)cc2)CC1 | 10.7% |
| CCCOc1ccc(Br)cc1/C=N/NC(=O)c1cc(OC)c(OC)c(OC)c1 | 10.9% |
| O=C(NNc1ccccc1[N+](=O)[O-])Nc1ccc(F)cc1 | 0.521% |
| Cc1cc(-c2cccs2)c2c(n1)sc1c(=O)[nH]c(=O)[nH]c12 | 8.61% |
| COc1ccc(/C=C/C(=O)NCC(=O)N/N=C(/C)c2ccco2)cc1 | 14.7% |
| CC(C)C(=O)NC(=S)Nc1ccc(S(=O)(=O)Nc2nccs2)cc1 | 16.1% |
| COc1ccc(C(=O)/C=C/C(=O)N(CC(=O)NC2CCCCC2)CC2CCCO2)c(O)c1 (stereo not drawn) | 9.64% |
| Cc1cc(S(=O)(=O)NCc2ccc3c(c2)OCO3)ccc1F | 2.68% |
| O=C(CSc1ncn[nH]1)c1ccc(OC(F)F)cc1 | 5.85% |
| Cc1ncc(C(=O)O)c(C(=O)O)c1N | 12.4% |
| Cc1cc(C)n2nc(SC(C)C(=O)N3CCC4(CC3)OCCO4)nc2n1 (stereo not drawn) | 9.95% |
| Cn1c(NC(=O)c2ccc(Cl)cc2)c(-c2ccccn2)c(=O)c2ccccc21 | 5.7% |
| COc1cc(C)c2c(c1C=O)Oc1c(c(C)c(O)c3c1C(O)OC3=O)OC2=O (stereo not drawn) | 16.6% |
| CC(=O)c1ccc(NC(=O)c2ccc(NC(=O)c3ccco3)cc2)cc1 | 19.8% |

| SMILES | hERG current change (%, negative = inhibition) at 1uM |
| --- | --- |
| COc1ccc(C2c3c(nc[nH]c3=O)Oc3nc[nH]c(=O)c32)cc1 | 9.65% |
| Cc1ccccc1C(=O)Nc1ccnn1C1CCN(C(=O)c2cnsn2)CC1 | -11.2% |
| CCC(C)NC(=S)N1CCN(Cc2ccccc2)CC1 (stereo not drawn) | 10.3% |
| FC(F)(F)Sc1ccc(NC(=S)NCc2ccccc2)cc1 | 16.1% |
| CCN(CCNC(=O)CC1Oc2ccccc2NC1=O)c1ccccc1 (stereo not drawn) | 12.6% |
| Cn1c(C(=O)N2CCN(c3ccc(Cl)cc3)CC2)cc2c(=O)[nH]c3ccccc3c21 | -56% |
| COc1ccc(CNc2nccs2)cc1 | 13.4% |
| CCN(CC)c1ccc(C=C(c2nnnn2-c2ccc(C)cc2)c2nnnn2-c2ccc(C)cc2)cc1 | 16.5% |
| CC(=O)c1ccc(N=C2SCCCN2C(=O)C2CCCCC2)cc1 | 18.8% |
| Cn1c(CC(=O)Nc2ccc(Cl)c(Cl)c2)nnc1SCC(=O)Nc1nccs1 | -3.4% |
| CCCC(=O)c1ccc(N2CCCC2)c(F)c1 | 12.6% |
| O=C(c1ccc(Cl)c([N+](=O)[O-])c1)N(c1ccccn1)c1ccccn1 | -15.9% |
| N#CCN(C(=O)COC(=O)CCCNC(=O)c1ccc(Cl)cc1)c1ccccc1 | -1.3% |
| Cc1ccc2nc(SCn3nnc4ccccc4c3=O)[nH]c2c1 | 23.6% |
| Clc1ccc(/C=N/Nc2ncnc3nc[nH]c23)cc1 | -8.26% |
| CCCn1c2ccccc2c2cnn(CC(=O)NC3CCCCC3)c(=O)c21 | 10.5% |
| COc1ccc(C(=O)NC(=S)NNC(=O)c2cccnc2)cc1 | 9.61% |
| CCCCn1c(N)c(N(CCOC)C(=O)COC(=O)COc2cccc(C(C)=O)c2)c(=O)[nH]c1=O | 13.1% |
| COC(=O)c1cn(-c2ccccc2)c(C)c1C(=O)OC | 2.71% |

| SMILES | hERG current change (%, negative = inhibition) at 1uM |
| --- | --- |
| CC(=O)c1ccc(NC(=O)CN2C(=O)CCC2=O)cc1 | -12.4% |
| COc1ccccc1C(=O)COC(=O)c1cccc(-n2cnnn2)c1 | -4.03% |
| CCOc1ccc(OCCSc2nc3ccccc3c(=O)[nH]2)cc1 | 16.3% |
| COc1ccccc1-c1nnc(SC)n1C | 14.2% |
| Cc1ccc(CN2CCN(C)CC2)c(C)c1 | 8.12% |
| CSc1nc2cc(C)nn2c(-c2ccc(C(C)(C)C)cc2)c1C#N | 5.78% |
| CCOC(=O)/C(C#N)=C1/C=CN(Cc2ccccc2)C=N1 | -11.9% |
| Cc1cccc(C)c1NC(=O)C(NC=O)c1ccc(N(C)C)cc1 (stereo not drawn) | 5.82% |
| CC12c3ccccc3C(c3ccccc31)C1C(=O)N(Cc3cccnc3)C(=O)C12 (stereo not drawn) | 7.12% |
| CC(C)(C)C(=O)N1CCn2c1nc1ccccc12 | 12% |
| COc1ccc(S(=O)(=O)N2CCN(CC(=O)NCCc3cccs3)CC2)cc1 | 7.69% |
| COc1cc(/C=C/C(=O)Nc2ccc3nc4n(c(=O)c3c2)CCCC4)cc(OC)c1OC | 1.64% |
| Cl.FC(F)(F)c1cc(-c2ccco2)nc(N2CCN(Cc3ccccc3)CC2)n1 | 4.24% |
| NS(=O)(=O)c1cccc(NC(=O)c2ccccc2NS(=O)(=O)c2ccc(F)cc2)c1 | 5.13% |
| CC1CCCC(NC(=O)Cc2ccc(Br)cc2)C1C (stereo not drawn) | 16.9% |
| COC(=O)c1cc(C(=O)Nc2ccc(S(N)(=O)=O)cc2)cc([N+](=O)[O-])c1 | 14.6% |
| C=CCOC(=O)C1=C[C@H](c2coc3ccccc3c2=O)[C@@H](CCCO)[C@H](OCC)O1 | 13.5% |
| Cc1ccc(CSc2nnc3ccc(-c4ccncc4)nn23)cc1 | -3.17% |
| CCc1ccc(CNC(=O)CCn2nc(C)c3c(C)n(-c4ccccc4)nc3c2=O)cc1 | 8.73% |
